In the supplement of paper PMC4604168 (melanoma cell lines):
The other results are listed elsewhere or left out. Most values come without repeats; read them as rough.

Columns and labels:
Experiment in all cases: cell count relative to DMSO control; melanoma cells; higher = more viable cells
Conditions in all cases: library dose: standard library concentration; 72 h
[1] = system: G361
[2] = system: IPC-298
[3] = system: IST-MEL1
[4] = system: LB2518-MEL
[5] = system: LOXIMVI
[6] = system: MEL-HO
[7] = system: MZ2-MEL
[8] = system: MeWo
[9] = system: RPMI7951
[10] = system: RVH-421
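Also: cells treated in 1,536-well plates, then fixed and DAPI-stained, with nuclei counted from automated high-throughput microscope images.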

Row | SMILES | cell count [1] [%] | cell count [2] [%] | cell count [3] [%] | cell count [4] [%] | cell count [5] [%] | cell count [6] [%] | cell count [7] [%] | cell count [8] [%] | cell count [9] [%] | cell count [10] [%]
1 | CC1(C)CCC(c2ccc(Cl)cc2)=C(CN2CCN(c3ccc(C(=O)NS(=O)(=O)c4ccc(N[C@H](CCN5CCOCC5)CSc5ccccc5)c(S(=O)(=O)C(F)(F)F)c4)cc3)CC2)C1 + CO[C@@H]1[C@H](N(C)C(=O)c2ccccc2)C[C@H]2O[C@]1(C)n1c3ccccc3c3c4c(c5c6ccccc6n2c5c31)C(=O)NC4 [Midostaurin] (first compound 2 µM, partner dose 0.4 µM) | 15 | 50.8 | 26.5 | 37.8 | 26.9 | 41.4 | 34.7 | 36 | 13.2 | 28.7
2 | O=C(/C=C/c1cccnc1)NCCCCC1CCN(C(=O)c2ccccc2)CC1 + CN(NC(=O)CC(=O)NN(C)C(=S)c1ccccc1)C(=S)c1ccccc1 [STA4783] (first compound 0.05 µM, partner dose 0.03 µM) | 2.69 | 39.1 | 23.9 | 21.7 | 54.2 | 44.3 | 48.2 | 17.1 | 89.7 | 37.7
3 | CC1(C)CCC(c2ccc(Cl)cc2)=C(CN2CCN(c3ccc(C(=O)NS(=O)(=O)c4ccc(N[C@H](CCN5CCOCC5)CSc5ccccc5)c(S(=O)(=O)C(F)(F)F)c4)cc3)CC2)C1 + Cn1nnc2c(C(N)=O)ncn2c1=O [temozolomide] (first compound 2 µM, partner dose 10 µM) | 94.7 | 95.9 | 55.2 |  | 25 | 61.8 |  | 87.9 | 45.1 | 143
4 | O=C(/C=C/c1cccnc1)NCCCCC1CCN(C(=O)c2ccccc2)CC1 + Nc1nc(F)nc2c1ncn2[C@@H]1O[C@H](CO)[C@@H](O)[C@@H]1O [fludarabine] (first compound 0.05 µM, partner dose 1 µM) | 3.13 | 32.2 | 50.1 |  | 78.5 | 37.2 |  | 89.4 | 78.5 | 30.4
5 | Cc1ccc(Nc2nccc(N(C)c3ccc4c(C)n(C)nc4c3)n2)cc1S(N)(=O)=O [Pazopanib] + COc1ccc2c(c1)CCC1C2CCC2(C)C(NCCCCCCN3C(=O)C=CC3=O)CCC12 [U73122] (first compound 2 µM, partner dose 2 µM) | 73.6 | 81.4 | 94 | 110 | 68.1 | 89.5 | 83.5 | 79.3 | 44.9 | 100
6 | CC1(C)CCC(c2ccc(Cl)cc2)=C(CN2CCN(c3ccc(C(=O)NS(=O)(=O)c4ccc(N[C@H](CCN5CCOCC5)CSc5ccccc5)c(S(=O)(=O)C(F)(F)F)c4)cc3)CC2)C1 + COc1ccc(C2=N[C@@H](c3ccc(Cl)cc3)[C@@H](c3ccc(Cl)cc3)N2C(=O)N2CCNC(=O)C2)c(OC(C)C)c1 [Nutlin-3] (first compound 2 µM, partner dose 0.5 µM) | 58 | 85 | 68.9 | 50.3 | 37 | 67.1 | 59.3 | 94.9 | 44.9 | 42.8
7 | O=C(/C=C/c1cccnc1)NCCCCC1CCN(C(=O)c2ccccc2)CC1 + C[C@@H](N)c1ccc(C(=O)Nc2ccnc3[nH]ccc23)cc1 [RKI983] (first compound 0.05 µM, partner dose 2 µM) | 3.64 | 13.5 | 43.1 | 27.7 | 69.6 | 20.1 | 11.3 | 78.3 | 46.9 | 18.5
8 | O=C(/C=C/c1cccnc1)NCCCCC1CCN(C(=O)c2ccccc2)CC1 + Cn1sc(=O)n(Cc2ccccc2)c1=O [TDZD-8] (first compound 0.05 µM, partner dose 2 µM) | 3.21 | 30.4 | 64.9 | 65.2 | 73.7 | 44.4 | 35.3 | 96.1 | 59.8 | 27.5
9 | CC1(C)CCC(c2ccc(Cl)cc2)=C(CN2CCN(c3ccc(C(=O)NS(=O)(=O)c4ccc(N[C@H](CCN5CCOCC5)CSc5ccccc5)c(S(=O)(=O)C(F)(F)F)c4)cc3)CC2)C1 + OCCn1cc(-c2cnc3nnn(Cc4ccc5ncccc5c4)c3n2)cn1 [PF04217903] (first compound 2 µM, partner dose 5 µM) | 63.4 | 112 | 38.8 | 79.7 | 48.8 | 66.9 | 111 | 85.7 | 36.9 | 78.8
10 | O=C(/C=C/c1cccnc1)NCCCCC1CCN(C(=O)c2ccccc2)CC1 + O=C(CCCCCCC(=O)Nc1ccccc1)NO [vorinostat] (first compound 0.05 µM, partner dose 0.4 µM) | 7.79 | 45.9 | 62.4 | 66.3 | 76.9 | 58.8 | 76 | 82.7 | 69.8 | 63
11 | CC1(C)CCC(c2ccc(Cl)cc2)=C(CN2CCN(c3ccc(C(=O)NS(=O)(=O)c4ccc(N[C@H](CCN5CCOCC5)CSc5ccccc5)c(S(=O)(=O)C(F)(F)F)c4)cc3)CC2)C1 + COc1cc2ncnc(Nc3ccc(Oc4ccccc4)cc3)c2cc1OC [SrcI1] (first compound 2 µM, partner dose 10 µM) | 34.3 | 103 | 43.4 | 111 | 34.7 | 62.3 | 75.9 | 80.7 | 14.8 | 14.9
12 | Cc1ccc(Nc2nccc(N(C)c3ccc4c(C)n(C)nc4c3)n2)cc1S(N)(=O)=O [Pazopanib] + Cn1cc(/C=C2\C(=O)Nc3cccnc32)c2ccccc21 [GW441756] (first compound 2 µM, partner dose 2 µM) | 74.3 | 60.6 | 88.7 | 73.5 | 96.4 | 89.1 | 75.3 | 104 | 79.1 | 100
13 | O=C(/C=C/c1cccnc1)NCCCCC1CCN(C(=O)c2ccccc2)CC1 + O=C(O)c1ccc(-c2c[nH]c3ncc(-c4ccccc4)cc23)cc1C1CCCC1 [GSK650394] (first compound 0.05 µM, partner dose 0.8 µM) | 4.62 | 37.3 | 61.4 | 63.9 | 59.1 | 53.2 | 34.9 | 85.1 | 115 | 29.5
14 | CC1(C)CCC(c2ccc(Cl)cc2)=C(CN2CCN(c3ccc(C(=O)NS(=O)(=O)c4ccc(N[C@H](CCN5CCOCC5)CSc5ccccc5)c(S(=O)(=O)C(F)(F)F)c4)cc3)CC2)C1 + Cn1cnc2c(F)c(Nc3ccc(Br)cc3Cl)c(C(=O)NOCCO)cc21 [selumetinib] (first compound 2 µM, partner dose 0.075 µM) | 51 | 44.8 | 84.7 |  | 92.3 | 57.9 |  | 71.8 | 67.5 | 46.5
15 | O=C(/C=C/c1cccnc1)NCCCCC1CCN(C(=O)c2ccccc2)CC1 + Cn1cncc1[C@@](N)(c1ccc(Cl)cc1)c1ccc2c(c1)c(-c1cccc(Cl)c1)cc(=O)n2C [tipifarnib] (first compound 0.05 µM, partner dose 0.05 µM) | 5.69 | 42.3 | 69.4 | 82.7 | 50.7 | 51 | 56.9 | 88.1 | 68.9 | 29.2
16 | CC1(C)CCC(c2ccc(Cl)cc2)=C(CN2CCN(c3ccc(C(=O)NS(=O)(=O)c4ccc(N[C@H](CCN5CCOCC5)CSc5ccccc5)c(S(=O)(=O)C(F)(F)F)c4)cc3)CC2)C1 + Nc1cccc2c1CN(C1CCC(=O)NC1=O)C2=O [lenalidomide] (first compound 2 µM, partner dose 5 µM) | 76.1 | 97 | 73.5 |  | 47.8 | 55.8 |  | 84.7 | 59.7 | 72.2
17 | CC1(C)CCC(c2ccc(Cl)cc2)=C(CN2CCN(c3ccc(C(=O)NS(=O)(=O)c4ccc(N[C@H](CCN5CCOCC5)CSc5ccccc5)c(S(=O)(=O)C(F)(F)F)c4)cc3)CC2)C1 + O=C(Nc1cccc(Cl)c1)Nc1ncc(CCNc2ncnc3ccsc23)s1 [SNS314] (first compound 2 µM, partner dose 0.004 µM) | 63.7 | 88 | 23.5 |  | 26.9 | 39.5 |  | 37.3 | 16.3 | 28.9
18 | O=C(/C=C/c1cccnc1)NCCCCC1CCN(C(=O)c2ccccc2)CC1 + O=C(Nc1ccccc1)c1cc([N+](=O)[O-])ccc1Cl [GW9662] (first compound 0.05 µM, partner dose 10 µM) | 8.05 | 48.9 | 89.6 | 49.7 | 61.7 | 55.4 | 33.1 | 92.3 | 101 | 45.9
19 | CC1(C)CCC(c2ccc(Cl)cc2)=C(CN2CCN(c3ccc(C(=O)NS(=O)(=O)c4ccc(N[C@H](CCN5CCOCC5)CSc5ccccc5)c(S(=O)(=O)C(F)(F)F)c4)cc3)CC2)C1 + Nc1nc(F)nc2c1ncn2[C@@H]1O[C@H](CO)[C@@H](O)[C@@H]1O [fludarabine] (first compound 2 µM, partner dose 1 µM) | 72.7 | 68.8 | 55.5 |  | 45.5 | 50.8 |  | 72.3 | 27 | 74
20 | O=C(/C=C/c1cccnc1)NCCCCC1CCN(C(=O)c2ccccc2)CC1 + NCC(=O)Nc1ccc(-n2nc(C(F)(F)F)cc2-c2ccc3c(ccc4ccccc43)c2)cc1 [OSU03012] (first compound 0.05 µM, partner dose 5 µM) | 5.53 | 38.7 | 58 |  | 60.5 | 38 |  | 93.6 | 115 | 33.7
